From the supplement of paper PMC4604168 (melanoma cell lines)
The list shows a part of the results. Most values come without repeats; read them as rough.

Columns and labels:
Assay in all cases: cell count relative to DMSO control; melanoma cells; higher = more viable cells
Conditions in all cases: library dose: standard library concentration; 72 h
SkMel28 = system: SkMel28
SkMel2 = system: SkMel2
SkMel30 = system: SkMel30
SkMel5 = system: SkMel5
UACC257 = system: UACC257
UACC62 = system: UACC62
WM115 = system: WM115
WM1716 = system: WM1716
WM1745 = system: WM1745
WM3526 = system: WM3526
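Note: cells treated in 1,536-well plates, then fixed and DAPI-stained, with nuclei counted from automated high-throughput microscope images.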

SMILES	cell count (SkMel28)	cell count (SkMel2)	cell count (SkMel30)	cell count (SkMel5)	cell count (UACC257)	cell count (UACC62)	cell count (WM115)	cell count (WM1716)	cell count (WM1745)	cell count (WM3526)
Cc1cc(Nc2cc(N3CCN(C)CC3)nc(/C=C/c3ccccc3)n2)n[nH]1 + CC(=O)c1c(C)c2cnc(Nc3ccc(N4CCNCC4)cn3)nc2n(C2CCCC2)c1=O [palbociclib] (first compound 0.2 µM, partner dose 0.2 µM)	34.9%	56.7%	70.7%	56.6%	74.1%	60.6%	38.3%	45.3%	53%	57%
CC(C)C[C@H](NC(=O)[C@H](Cc1ccccc1)NC(=O)c1cnccn1)B(O)O [Bortezomib] + C=CCn1c(=O)c2cnc(Nc3ccc(N4CCN(C)CC4)cc3)nc2n1-c1cccc(C(C)(C)O)n1 [MK1775] (first compound 0.005 µM, partner dose 0.1 µM)	28.7%	48.5%	31%	37%	74.6%	68.1%	30.1%	30.4%	19.2%	30.3%
Cn1c(=O)n(-c2ccc(C(C)(C)C#N)cc2)c2c3cc(-c4cnc5ccccc5c4)ccc3ncc21 + NCC(=O)Nc1ccc(-n2nc(C(F)(F)F)cc2-c2ccc3c(ccc4ccccc43)c2)cc1 [OSU03012] (first compound 0.02 µM, partner dose 5 µM)	25.5%	45.6%	40.2%	60.4%	72.9%	48.6%	64.2%	59.2%	29.6%	60.9%
Cc1cc(Nc2cc(N3CCN(C)CC3)nc(/C=C/c3ccccc3)n2)n[nH]1 + COc1cc(Nc2ncc(F)c(Nc3ccc4c(n3)NC(=O)C(C)(C)O4)n2)cc(OC)c1OC [Tamatinib] (first compound 0.2 µM, partner dose 2 µM)	64.7%	78.2%	111%	63.7%	66.1%	64%	61.7%	70.7%	35.1%	88.5%
Cc1cn(-c2cc(NC(=O)c3ccc(C)c(Nc4nccc(-c5cccnc5)n4)c3)cc(C(F)(F)F)c2)cn1 [nilotinib] + Cc1cc(Nc2cc(N3CCN(C)CC3)nc(/C=C/c3ccccc3)n2)n[nH]1 [ENMD2076] (first compound 1 µM, partner dose 0.2 µM)	82.8%	107%	91%	76%	101%	64.5%	64.7%	79%	59.9%	95.5%
COc1ccc(C2=N[C@@H](c3ccc(Cl)cc3)[C@@H](c3ccc(Cl)cc3)N2C(=O)N2CCNC(=O)C2)c(OC(C)C)c1 [Nutlin-3] + Nc1ccn([C@@H]2O[C@H](CO)[C@@H](O)C2(F)F)c(=O)n1 [gemcitabine] (first compound 0.5 µM, partner dose 0.002 µM)	78.9%	91.9%	102%	75%	92.9%	63.1%	70.8%	73.5%	50.5%	80.9%
CC(C)C[C@H](NC(=O)[C@H](Cc1ccccc1)NC(=O)c1cnccn1)B(O)O [Bortezomib] + CC(C)(C)c1cnc(CSc2cnc(NC(=O)C3CCNCC3)s2)o1 [SNS-032] (first compound 0.005 µM, partner dose 0.05 µM)	35.9%	30.3%	29.6%	27.7%	81.3%	61%	24.9%	22.1%	16.7%	32.9%
Cc1cn(-c2cc(NC(=O)c3ccc(C)c(Nc4nccc(-c5cccnc5)n4)c3)cc(C(F)(F)F)c2)cn1 [nilotinib] + CC(C)CCN1c2nc(Nc3cc(F)c(O)c(F)c3)ncc2N(C)C(=O)C1C [BID1870] (first compound 1 µM, partner dose 1 µM)	38.7%	68.9%	62.9%	66.8%	101%	64.1%	87.1%	64.2%	–	66.7%
Cn1c(=O)n(-c2ccc(C(C)(C)C#N)cc2)c2c3cc(-c4cnc5ccccc5c4)ccc3ncc21 + O=C(Nc1ccccc1)c1cc([N+](=O)[O-])ccc1Cl [GW9662] (first compound 0.02 µM, partner dose 10 µM)	30.4%	56.9%	82.8%	78.2%	96.6%	72.3%	73.2%	86.6%	–	76.1%
Cn1c(=O)n(-c2ccc(C(C)(C)C#N)cc2)c2c3cc(-c4cnc5ccccc5c4)ccc3ncc21 + O=C1NC(=O)/C(=C/c2ccc(-c3ccc(F)cc3O)o2)S1 [AS252424] (first compound 0.02 µM, partner dose 5 µM)	58.6%	67.6%	71.2%	70.7%	102%	71.5%	86.5%	78%	–	74.5%
Cn1c(=O)n(-c2ccc(C(C)(C)C#N)cc2)c2c3cc(-c4cnc5ccccc5c4)ccc3ncc21 + O=c1cc(-c2cccc3c2Sc2ccccc2S3)oc(N2CCOCC2)c1 [KU55933] (first compound 0.02 µM, partner dose 5 µM)	50.8%	66.1%	57%	71.1%	99%	67.2%	72.8%	66.8%	–	75.2%
Cn1c(=O)n(-c2ccc(C(C)(C)C#N)cc2)c2c3cc(-c4cnc5ccccc5c4)ccc3ncc21 + COc1cc2ncnc(Nc3ccc(Oc4ccccc4)cc3)c2cc1OC [SrcI1] (first compound 0.02 µM, partner dose 10 µM)	30%	42.8%	39.9%	47.7%	77.9%	34.4%	36.4%	52.4%	–	42.1%
CC(C)C[C@H](NC(=O)[C@H](Cc1ccccc1)NC(=O)c1cnccn1)B(O)O [Bortezomib] + c1cc(-c2cnn3cc(-c4ccc(OCCN5CCCCC5)cc4)cnc23)ccn1 [Dorsomorphin] (first compound 0.005 µM, partner dose 2 µM)	27.1%	23.6%	25.3%	25%	63.8%	45.8%	25.9%	25.9%	–	31.8%
Cn1c(=O)n(-c2ccc(C(C)(C)C#N)cc2)c2c3cc(-c4cnc5ccccc5c4)ccc3ncc21 + CC(C)CCN1c2nc(Nc3cc(F)c(O)c(F)c3)ncc2N(C)C(=O)C1C [BID1870] (first compound 0.02 µM, partner dose 1 µM)	41.5%	50.2%	77.7%	53.6%	99.2%	78.8%	66.6%	74.2%	–	61.5%
Cc1cn(-c2cc(NC(=O)c3ccc(C)c(Nc4nccc(-c5cccnc5)n4)c3)cc(C(F)(F)F)c2)cn1 [nilotinib] + N#Cc1c(O)c2c(-c3ccc(-c4ccccc4O)cc3)csc2[nH]c1=O [A769662] (first compound 1 µM, partner dose 10 µM)	107%	99.9%	106%	73.9%	103%	97.4%	105%	97.1%	–	93.2%
Cn1c(=O)n(-c2ccc(C(C)(C)C#N)cc2)c2c3cc(-c4cnc5ccccc5c4)ccc3ncc21 + Oc1nc(-c2ccc(C(F)(F)F)cc2)nc2c1CSCC2 [XAV939] (first compound 0.02 µM, partner dose 10 µM)	43.9%	72.2%	83.1%	65.3%	76.4%	60.1%	67.7%	37.4%	–	87%
Cc1cn(-c2cc(NC(=O)c3ccc(C)c(Nc4nccc(-c5cccnc5)n4)c3)cc(C(F)(F)F)c2)cn1 [nilotinib] + Oc1nc(-c2ccc(C(F)(F)F)cc2)nc2c1CSCC2 [XAV939] (first compound 1 µM, partner dose 10 µM)	64.5%	78.5%	89.2%	49%	90.2%	84.2%	98.3%	60.3%	–	100%
Cc1cc(Nc2cc(N3CCN(C)CC3)nc(/C=C/c3ccccc3)n2)n[nH]1 + Cn1cc(/C=C2\C(=O)Nc3cccnc32)c2ccccc21 [GW441756] (first compound 0.2 µM, partner dose 2 µM)	50.7%	88.8%	86.8%	57.1%	72.6%	49.3%	70.9%	115%	–	75.9%
